Measured values taken from the supplement of paper PMC4967469.
IC50 is the fitted dose that halves viability relative to control wells, and lower means more sensitive; where the fit passes the top or lowest dose, that dose stands as a limit. For AUC the same curve is integrated over the 256-fold range of doses and scaled to a fraction; it is 1 without any effect and falls as sensitivity rises. An inferred top dose is not printed in the source and was worked back from the curve model.

Compound: CCc1nc(-c2cccc(C)c2)c(-c2ccnc(NC(=O)c3ccccc3)c2)s1 [TAK-715]
Assay: Viability of human cancer cell lines after 72 h of drug (GDSC screen)
Details: top dose inferred
Method: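 Human cancer cell lines in 384-well plates, medium with 10% serum, drug for 72 h over a 256-fold dose range (nine 2-fold or five 4-fold steps up to the top dose). Adherent lines were fixed and stained with the nucleic acid dye Syto60, suspension lines read with resazurin; signal relative to control wells, capped at 0 and 100%. One two-parameter sigmoid per drug and line, fitted in a mixed model over all curves with the slope shared within a line.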

Cell Line	AUC	IC50 [µM]
NCI-H1793 (lung adenocarcinoma, adherent, top dose 20 µM)	0.962	> 20
NCI-H1836 (small cell lung carcinoma, suspension, top dose 20 µM)	0.95	> 20
NCI-H1838 (lung adenocarcinoma, adherent, top dose 20 µM)	0.984	> 20
NCI-H1869 (lung squamous cell carcinoma, adherent, top dose 20 µM)	0.927	> 20
NCI-H1876 (small cell lung carcinoma, adherent, top dose 20 µM)	0.965	> 20
NCI-H1915 (large cell lung carcinoma, adherent, top dose 20 µM)	0.981	> 20
NCI-H1944 (lung adenocarcinoma, adherent, top dose 20 µM)	0.838	14.9
NCI-H1975 (lung adenocarcinoma, adherent, top dose 20 µM)	0.934	> 20
NCI-H1993 (lung adenocarcinoma, adherent, top dose 20 µM)	0.949	> 20
NCI-H2009 (lung adenocarcinoma, adherent, top dose 20 µM)	0.981	> 20
NCI-H2023 (lung adenocarcinoma, adherent, top dose 20 µM)	0.956	> 20
NCI-H2029 (small cell lung carcinoma, adherent, top dose 20 µM)	0.931	> 20
NCI-H2030 (lung adenocarcinoma, adherent, top dose 20 µM)	0.942	> 20
NCI-H2052 (mesothelioma, adherent, top dose 20 µM)	0.975	> 20
NCI-H2081 (small cell lung carcinoma, suspension, top dose 20 µM)	0.924	> 20
NCI-H2085 (lung adenocarcinoma, adherent, top dose 20 µM)	0.885	> 20
NCI-H2087 (lung adenocarcinoma, semi-adherent, top dose 20 µM)	0.567	1.93
NCI-H2110 (non-small cell lung carcinoma, adherent, top dose 20 µM)	0.978	> 20
NCI-H2122 (lung adenocarcinoma, adherent, top dose 20 µM)	0.983	> 20
NCI-H2135 (non-small cell lung carcinoma, adherent, top dose 20 µM)	0.929	> 20
NCI-H2141 (small cell lung carcinoma, suspension, top dose 20 µM)	0.969	> 20
NCI-H2170 (lung squamous cell carcinoma, adherent, top dose 20 µM)	0.972	> 20
NCI-H2171 (small cell lung carcinoma, suspension, top dose 20 µM)	0.964	> 20
NCI-H2172 (non-small cell lung carcinoma, adherent, top dose 20 µM)	0.97	> 20
NCI-H2196 (small cell lung carcinoma, adherent, top dose 20 µM)	0.964	> 20
NCI-H2227 (small cell lung carcinoma, semi-adherent, top dose 20 µM)	0.986	> 20

Cell Line	AUC	IC50 [µM]
NCI-H2228 (lung adenocarcinoma, adherent, top dose 20 µM)	0.946	> 20
NCI-H2291 (lung adenocarcinoma, adherent, top dose 20 µM)	0.98	> 20
NCI-H2342 (lung adenocarcinoma, adherent, top dose 20 µM)	0.935	> 20
NCI-H2347 (lung adenocarcinoma, adherent, top dose 20 µM)	0.983	> 20
NCI-H2405 (lung adenocarcinoma, adherent, top dose 20 µM)	0.942	> 20
NCI-H2444 (non-small cell lung carcinoma, adherent, top dose 20 µM)	0.98	> 20
NCI-H2452 (mesothelioma, adherent, top dose 20 µM)	0.979	> 20
NCI-H3122 (lung adenocarcinoma, adherent, top dose 20 µM)	0.907	> 20
NCI-SNU-1 (stomach, suspension, top dose 20 µM)	0.784	8.78
NCI-SNU-5 (stomach, suspension, top dose 20 µM)	0.975	> 20
NCI-SNU-16 (stomach, suspension, top dose 20 µM)	0.966	> 20
NEC8 (testis, adherent, top dose 20 µM)	0.938	> 20
NH-12 (neuroblastoma, adherent, top dose 20 µM)	0.871	> 20
NK-92MI (lymphoid neoplasm, suspension, top dose 20 µM)	0.824	10.8
NKM-1 (acute myeloid leukaemia, suspension, top dose 20 µM)	0.892	> 20
NMC-G1 (glioma, adherent, top dose 20 µM)	0.945	> 20
NOMO-1 (acute myeloid leukaemia, suspension, top dose 20 µM)	0.942	> 20
NOS-1 (osteosarcoma, adherent, top dose 20 µM)	0.783	10.6
NTERA-2 cl.D1 (testis, adherent, top dose 20 µM)	0.959	> 20
NU-DUL-1 (B-cell lymphoma, suspension, top dose 20 µM)	0.885	14.5
NUGC-3 (stomach, adherent, top dose 20 µM)	0.939	> 20
NUGC-4 (stomach, adherent, top dose 20 µM)	0.942	> 20
NY (osteosarcoma, adherent, top dose 20 µM)	0.972	> 20
OACM5-1 (oesophagus, semi-adherent, top dose 20 µM)	0.827	14.3
OACp4C (oesophagus, adherent, top dose 20 µM)	0.814	13.8
OAW-28 (ovary, adherent, top dose 20 µM)	0.91	> 20

Cell Line	AUC	IC50 [µM]
OAW-42 (ovary, adherent, top dose 20 µM)	0.924	> 20
OC-314 (ovary, adherent, top dose 20 µM)	0.943	> 20
OCI-AML2 (acute myeloid leukaemia, suspension, top dose 20 µM)	0.952	> 20
OCI-AML3 (acute myeloid leukaemia, suspension, top dose 20 µM)	0.954	> 20
OCI-AML5 (acute myeloid leukaemia, suspension, top dose 20 µM)	0.845	12.6
OCI-LY-19 (B-cell lymphoma, suspension, top dose 20 µM)	0.887	19.3
OCI-M1 (acute myeloid leukaemia, suspension, top dose 20 µM)	0.859	10.6
OCUB-M (breast, adherent, top dose 20 µM)	0.858	13
OCUM-1 (stomach, adherent, top dose 20 µM)	0.966	> 20
OE19 (oesophagus, adherent, top dose 20 µM)	0.98	> 20
OE21 (oesophagus, adherent, top dose 20 µM)	0.978	> 20
OE33 (oesophagus, adherent, top dose 20 µM)	0.979	> 20
OMC-1 (cervix, adherent, top dose 20 µM)	0.942	> 20
ONS-76 (medulloblastoma, adherent, top dose 20 µM)	0.949	> 20
OPM-2 (myeloma, suspension, top dose 20 µM)	0.898	16.9
OS-RC-2 (kidney, adherent, top dose 20 µM)	0.906	> 20
OSC-19 (head and neck, adherent, top dose 20 µM)	0.94	> 20
OSC-20 (head and neck, adherent, top dose 20 µM)	0.927	> 20
OV-7 (ovary, adherent, top dose 20 µM)	0.933	> 20
OV-17R (ovary, adherent, top dose 20 µM)	0.902	> 20
OV-56 (ovary, adherent, top dose 20 µM)	0.967	> 20
OV-90 (ovary, adherent, top dose 20 µM)	0.91	> 20
OVCA420 (ovary, adherent, top dose 20 µM)	0.973	> 20
OVCA433 (ovary, adherent, top dose 20 µM)	0.939	> 20
OVCAR-3 (ovary, adherent, top dose 20 µM)	0.979	> 20
OVCAR-4 (ovary, adherent, top dose 20 µM)	0.871	> 20
